# Some of the results follow.
# B1: Threefoil (Haloarcula marismortui) (protein)
# chain: GSSHHHHHHHHHHSSGLVPRGSHMGDGYYKLVARHSGKALDVENASTSDGANVIQYSYSGGDNQQWRLVDLGDGYYKLVARHSGKALDVENASTSDGANVIQYSYSGGDNQQWRLVDLGDGYYKLVARHSGKALDVENASTSDGANVIQYSYSGGDNQQWRLVDL
# Key:
# Assay in all cases: glycan array binding signal (z-score within array); higher = stronger binding
# Details in all cases: glycan notation: IUPAC condensed, linker removed
# Neu5Ac(a2-3)Gal = biological target: Neu5Ac(a2-3)Gal
# How it was run: (§1)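 Arrays were curated from the Consortium for Functional Glycomics database, 3228 in total, and kept only where the protein sequence was available. Binding is expressed as a within-array Z-score. This score was averaged across arrays of the same protein sequence at different concentrations or buffers and across linkers, and negative values can be read as non-binding.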
# [1] = biological target: Neu5Ac(a2-3)Gal(b1-3)GalNAc
# How it was run: as §1
# [2] = biological target: Neu5Ac(a2-3)Gal(b1-3)GalNAc(b1-3)Gal(a1-4)Gal(b1-4)Glc
# How it was run: as §1
# [3] = biological target: Neu5Ac(a2-3)Gal(b1-3)GalNAc(b1-4)[Neu5Ac(a2-3)]Gal(b1-4)Glc
# How it was run: as §1
# [4] = biological target: Neu5Ac(a2-3)Gal(b1-3)GalNAc(b1-4)[Neu5Ac(a2-8)Neu5Ac(a2-3)]Gal(b1-4)Glc
# How it was run: as §1
# [5] = biological target: Neu5Ac(a2-3)Gal(b1-3)GalNAc6S
# How it was run: as §1
# [6] = biological target: Neu5Ac(a2-3)Gal(b1-3)GlcNAc
# How it was run: as §1
# [7] = biological target: Neu5Ac(a2-3)Gal(b1-3)GlcNAc(b1-2)Man
# How it was run: as §1
# [8] = biological target: Neu5Ac(a2-3)Gal(b1-3)GlcNAc(b1-2)Man(a1-3)[GlcNAc(b1-4)][Neu5Ac(a2-3)Gal(b1-3)GlcNAc(b1-2)Man(a1-6)]Man(b1-4)GlcNAc(b1-4)GlcNAc
# How it was run: as §1
# [9] = biological target: Neu5Ac(a2-3)Gal(b1-3)GlcNAc(b1-2)Man(a1-3)[Neu5Ac(a2-3)Gal(b1-3)GlcNAc(b1-2)Man(a1-6)]Man(b1-4)GlcNAc(b1-4)GlcNAc
# How it was run: as §1
# [10] = biological target: Neu5Ac(a2-3)Gal(b1-3)GlcNAc(b1-3)Gal(b1-3)GlcNAc
# How it was run: as §1
# [11] = biological target: Neu5Ac(a2-3)Gal(b1-3)GlcNAc(b1-3)Gal(b1-4)GlcNAc
# How it was run: as §1
# [12] = biological target: Neu5Ac(a2-3)Gal(b1-3)GlcNAc(b1-3)GalNAc
# How it was run: as §1
# [13] = biological target: Neu5Ac(a2-3)Gal(b1-3)GlcNAc(b1-4)Gal(b1-4)Glc
# How it was run: as §1
# [14] = biological target: Neu5Ac(a2-3)Gal(b1-3)GlcNAc(b1-6)GalNAc
# How it was run: as §1
# [15] = biological target: Neu5Ac(a2-3)Gal(b1-3)GlcNAc6S
# How it was run: as §1
# [16] = biological target: Neu5Ac(a2-3)Gal(b1-3)[Fuc(a1-4)]GlcNAc
# How it was run: as §1
# [17] = biological target: Neu5Ac(a2-3)Gal(b1-3)[Fuc(a1-4)]GlcNAc(b1-3)Gal(b1-3)[Fuc(a1-4)]GlcNAc
# How it was run: as §1
# [18] = biological target: Neu5Ac(a2-3)Gal(b1-3)[Fuc(a1-4)]GlcNAc(b1-3)Gal(b1-4)[Fuc(a1-3)]GlcNAc
# How it was run: as §1
# [19] = biological target: Neu5Ac(a2-3)Gal(b1-3)[GlcNAc(b1-6)]GalNAc
# How it was run: as §1
# [20] = biological target: Neu5Ac(a2-3)Gal(b1-3)[Neu5Ac(a2-6)]GalNAc
# How it was run: as §1
# [21] = biological target: Neu5Ac(a2-3)Gal(b1-3)[Neu5Ac(a2-6)]GlcNAc(b1-3)[Fuc(a1-3)[Gal(b1-4)]GlcNAc(b1-6)]Gal(b1-4)Glc
# How it was run: as §1
# [22] = biological target: Neu5Ac(a2-3)Gal(b1-3)]Neu5Ac(a2-3)Gal(b1-4)]GlcNAc
# How it was run: as §1
# Neu5Ac(a2-3)Gal(b1-4)Glc = biological target: Neu5Ac(a2-3)Gal(b1-4)Glc
# How it was run: as §1
# [23] = biological target: Neu5Ac(a2-3)Gal(b1-4)GlcNAc
# How it was run: as §1
# [24] = biological target: Neu5Ac(a2-3)Gal(b1-4)GlcNAc(b1-2)Man
# How it was run: as §1
# [25] = biological target: Neu5Ac(a2-3)Gal(b1-4)GlcNAc(b1-2)Man(a1-3)[GlcNAc(b1-4)][Neu5Ac(a2-3)Gal(b1-4)GlcNAc(b1-2)Man(a1-6)]Man(b1-4)GlcNAc(b1-4)GlcNAc
# How it was run: as §1
# [26] = biological target: Neu5Ac(a2-3)Gal(b1-4)GlcNAc(b1-2)Man(a1-3)[Neu5Ac(a2-3)Gal(b1-4)GlcNAc(b1-2)Man(a1-6)]Man(b1-4)GlcNAc(b1-4)GlcNAc
# How it was run: as §1
# [27] = biological target: Neu5Ac(a2-3)Gal(b1-4)GlcNAc(b1-2)Man(a1-3)[Neu5Ac(a2-3)Gal(b1-4)GlcNAc(b1-2)Man(a1-6)]Man(b1-4)GlcNAc(b1-4)[Fuc(a1-6)]GlcNAc
# How it was run: as §1
# [28] = biological target: Neu5Ac(a2-3)Gal(b1-4)GlcNAc(b1-2)Man(a1-3)[Neu5Ac(a2-6)Gal(b1-4)GlcNAc(b1-2)Man(a1-6)]Man(b1-4)GlcNAc(b1-4)GlcNAc
# How it was run: as §1
# [29] = biological target: Neu5Ac(a2-3)Gal(b1-4)GlcNAc(b1-2)[Neu5Ac(a2-3)Gal(b1-4)GlcNAc(b1-2)]Man(a1-6)[Neu5Ac(a2-3)Gal(b1-4)GlcNAc(b1-2)Man(a1-3)][GlcNAc(b1-4)]Man(b1-4)GlcNAc(b1-4)GlcNAc
# How it was run: as §1
# [30] = biological target: Neu5Ac(a2-3)Gal(b1-4)GlcNAc(b1-2)[Neu5Ac(a2-3)Gal(b1-4)GlcNAc(b1-4)]Man(a1-3)[GlcNAc(b1-4)][Neu5Ac(a2-3)Gal(b1-4)GlcNAc(b1-2)[Neu5Ac(a2-3)Gal(b1-4)GlcNAc(b1-6)]Man(a1-6)]Man(b1-4)GlcNAc(b1-4)GlcNAc
# How it was run: as §1
# [31] = biological target: Neu5Ac(a2-3)Gal(b1-4)GlcNAc(b1-2)[Neu5Ac(a2-3)Gal(b1-4)GlcNAc(b1-4)]Man(a1-3)[GlcNAc(b1-4)][Neu5Ac(a2-3)Gal(b1-4)GlcNAc(b1-4)Man(a1-6)]Man(b1-4)GlcNAc(b1-4)GlcNAc
# How it was run: as §1
# [32] = biological target: Neu5Ac(a2-3)Gal(b1-4)GlcNAc(b1-2)[Neu5Ac(a2-3)Gal(b1-4)GlcNAc(b1-6)]Man(a1-6)[Neu5Ac(a2-3)Gal(b1-4)GlcNAc(b1-2)Man(a1-3)]Man(b1-4)GlcNAc(b1-4)GlcNAc
# How it was run: as §1
# [33] = biological target: Neu5Ac(a2-3)Gal(b1-4)GlcNAc(b1-2)[Neu5Ac(a2-3)Gal(b1-4)GlcNAc(b1-6)]Man(a1-6)[Neu5Ac(a2-3)Gal(b1-4)GlcNAc(b1-2)Man(a1-3)][GlcNAc(b1-4)]Man(b1-4)GlcNAc(b1-4)GlcNAc
# How it was run: as §1
# [34] = biological target: Neu5Ac(a2-3)Gal(b1-4)GlcNAc(b1-3)Gal
# How it was run: as §1
# [35] = biological target: Neu5Ac(a2-3)Gal(b1-4)GlcNAc(b1-3)Gal(b1-3)GlcNAc
# How it was run: as §1
# [36] = biological target: Neu5Ac(a2-3)Gal(b1-4)GlcNAc(b1-3)Gal(b1-4)GlcNAc
# How it was run: as §1
# [37] = biological target: Neu5Ac(a2-3)Gal(b1-4)GlcNAc(b1-3)Gal(b1-4)GlcNAc(b1-2)Man(a1-3)[Neu5Ac(a2-3)Gal(b1-4)GlcNAc(b1-3)Gal(b1-4)GlcNAc(b1-2)Man(a1-6)]Man(b1-4)GlcNAc(b1-4)GlcNAc
# How it was run: as §1
# [38] = biological target: Neu5Ac(a2-3)Gal(b1-4)GlcNAc(b1-3)Gal(b1-4)GlcNAc(b1-3)Gal(b1-4)GlcNAc
# How it was run: as §1
# [39] = biological target: Neu5Ac(a2-3)Gal(b1-4)GlcNAc(b1-3)Gal(b1-4)GlcNAc(b1-3)Gal(b1-4)GlcNAc(b1-2)Man(a1-3)[Neu5Ac(a2-3)Gal(b1-4)GlcNAc(b1-3)Gal(b1-4)GlcNAc(b1-3)Gal(b1-4)GlcNAc(b1-2)Man(a1-6)]GalNAc
# How it was run: as §1
# [40] = biological target: Neu5Ac(a2-3)Gal(b1-4)GlcNAc(b1-3)Gal(b1-4)GlcNAc(b1-3)GalNAc
# How it was run: as §1
# [41] = biological target: Neu5Ac(a2-3)Gal(b1-4)GlcNAc(b1-3)Gal(b1-4)GlcNAc(b1-3)[Neu5Ac(a2-3)Gal(b1-4)GlcNAc(b1-3)Gal(b1-4)GlcNAc(b1-6)]GalNAc
# How it was run: as §1
# [42] = biological target: Neu5Ac(a2-3)Gal(b1-4)GlcNAc(b1-3)Gal(b1-4)GlcNAc(b1-6)[Gal(b1-3)]GalNAc
# How it was run: as §1
# [43] = biological target: Neu5Ac(a2-3)Gal(b1-4)GlcNAc(b1-3)Gal(b1-4)[Fuc(a1-3)]GlcNAc
# How it was run: as §1
binder,measurement,setting,value
B1,glycan array binding signal (z-score),Neu5Ac(a2-3)Gal,-0.291
same,glycan array binding signal (z-score),[1],-0.252
same,glycan array binding signal (z-score),[2],-0.283
same,glycan array binding signal (z-score),[3],-0.148
same,glycan array binding signal (z-score),[4],-0.245
same,glycan array binding signal (z-score),[5],-0.067
same,glycan array binding signal (z-score),[6],-0.198
same,glycan array binding signal (z-score),[7],-0.149
same,glycan array binding signal (z-score),[8],-0.252
same,glycan array binding signal (z-score),[9],-0.195
same,glycan array binding signal (z-score),[10],-0.139
same,glycan array binding signal (z-score),[11],-0.3
same,glycan array binding signal (z-score),[12],-0.266
same,glycan array binding signal (z-score),[13],-0.272
same,glycan array binding signal (z-score),[14],-0.324
same,glycan array binding signal (z-score),[15],-0.17
same,glycan array binding signal (z-score),[16],-0.243
same,glycan array binding signal (z-score),[17],-0.148
same,glycan array binding signal (z-score),[18],-0.183
same,glycan array binding signal (z-score),[19],-0.377
same,glycan array binding signal (z-score),[20],-0.151
same,glycan array binding signal (z-score),[21],-0.154
same,glycan array binding signal (z-score),[22],-0.136
same,glycan array binding signal (z-score),Neu5Ac(a2-3)Gal(b1-4)Glc,-0.26
same,glycan array binding signal (z-score),[23],-0.15
same,glycan array binding signal (z-score),[24],-0.022
same,glycan array binding signal (z-score),[25],-0.269
same,glycan array binding signal (z-score),[26],-0.211
same,glycan array binding signal (z-score),[27],-0.134
same,glycan array binding signal (z-score),[28],-0.287
same,glycan array binding signal (z-score),[29],-0.231
same,glycan array binding signal (z-score),[30],-0.221
same,glycan array binding signal (z-score),[31],-0.211
same,glycan array binding signal (z-score),[32],-0.269
same,glycan array binding signal (z-score),[33],-0.226
same,glycan array binding signal (z-score),[34],-0.299
same,glycan array binding signal (z-score),[35],-0.288
same,glycan array binding signal (z-score),[36],-0.186
same,glycan array binding signal (z-score),[37],-0.284
same,glycan array binding signal (z-score),[38],-0.127
same,glycan array binding signal (z-score),[39],0.147
same,glycan array binding signal (z-score),[40],-0.288
same,glycan array binding signal (z-score),[41],-0.102
same,glycan array binding signal (z-score),[42],-0.284
same,glycan array binding signal (z-score),[43],-0.26

# Source: the supplement of paper PMC8728848
